# Assay results as given in PMC6919601, “Identification of Plasmodium dipeptidyl aminopeptidase allosteric inhibitors by high throughput screening” (PLoS ONE, 2019).
# Where “and” joins values, the source holds several entries; their conditions need not be identical. Equal values may be shown once. The campaign covered roughly 110,000 compounds. About 230 (0.21%) showed an effect of 50% or more. The list shows a part of the results.
# Target: DPAP1 (Plasmodium falciparum, UniProt Q8IIJ9)
# Test: primary screen, percent inhibition; read by cleavage of a fluorogenic dipeptide substrate; higher = more effect of the substance
# Design: species or system P. falciparum D10 trophozoite lysates; single well
# 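Note: 30 min substrate incubation versus DMSO and 10 µM JCP410 controls.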
# DPAP1, sequence (Q8IIJ9 whole entry, looked up): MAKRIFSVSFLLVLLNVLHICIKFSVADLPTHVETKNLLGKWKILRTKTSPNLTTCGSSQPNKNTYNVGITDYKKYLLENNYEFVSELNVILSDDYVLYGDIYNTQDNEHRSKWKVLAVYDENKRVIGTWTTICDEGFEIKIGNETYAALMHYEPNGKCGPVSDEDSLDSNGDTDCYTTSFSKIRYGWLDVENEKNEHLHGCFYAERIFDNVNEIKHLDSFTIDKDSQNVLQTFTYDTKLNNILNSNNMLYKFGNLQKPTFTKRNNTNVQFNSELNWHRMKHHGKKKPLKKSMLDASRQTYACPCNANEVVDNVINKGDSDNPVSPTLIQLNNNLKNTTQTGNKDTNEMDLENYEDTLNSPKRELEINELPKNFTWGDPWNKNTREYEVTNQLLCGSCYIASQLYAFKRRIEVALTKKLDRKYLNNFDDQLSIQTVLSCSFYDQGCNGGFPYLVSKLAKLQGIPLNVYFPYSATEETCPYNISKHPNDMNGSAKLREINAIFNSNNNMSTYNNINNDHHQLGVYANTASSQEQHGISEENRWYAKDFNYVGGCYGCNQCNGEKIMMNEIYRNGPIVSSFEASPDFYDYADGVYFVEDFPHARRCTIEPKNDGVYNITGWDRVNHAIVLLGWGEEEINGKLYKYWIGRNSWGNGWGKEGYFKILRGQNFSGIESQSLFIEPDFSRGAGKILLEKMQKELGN
row,SMILES,% Inhibition @ 10 uM
1,COC(=O)c1sc(N2C(=O)c3oc4ccccc4c(=O)c3C2c2ccc(C(C)(C)C)cc2)nc1C (stereo not shown),-1.86%
2,Brc1ccccc1CN1CCOCC1,-5.42%
3,Fc1ccccc1-c1ccc(CNCCSc2nnnn2-c2ccccc2)o1,-1.31%
4,CN(CCCNCc1c(C(=O)O)n(Cc2ccc(F)cc2Cl)c2ccccc12)Cc1ccccc1,0.277%
5,O=C(Nc1sc2c(c1C(=O)N1CCOCC1)CCCCC2)c1ccccc1,5.79%
6,COc1ccc(Nc2nc(Cl)nc(Nc3ccc(C)cc3)n2)cc1,-1.86%
7,CCOc1ccc(/C=C/C(=O)Nc2nnc(Cc3ccc(Cl)cc3)s2)cc1OC,-5.44%
8,CCCNC(=O)c1oc2ccc3c(c2c1C)C(O)CC(C)(C)O3 (stereo not shown),3.47%
9,Cc1ccc(C(=O)Nc2nc(-c3nnn(-c4ccc(F)cc4)c3C)ns2)cc1C,2.99%
10,O=C(/C=C/c1ccco1)NC(=S)N1CCCCC1,4.88%
11,COc1ccc(C(=O)N2c3ccc(F)cc3CCC2C)cc1OC (stereo not shown),-7.15%
12,CC/N=c1\c(NC(=O)Cc2ccccc2)c(O)oc2ccccc12,2.5%
13,Cc1noc(/C=C/N(C)C)c1S(=O)(=O)N1CCCC(C(=O)NCCc2ccccc2)C1 (stereo not shown),-4.69%
14,Cc1cc(C)cc(C=C2C(=O)c3ccccc3C2=O)c1,2.6%
15,Cc1cc(=O)[nH]c(=O)n1-c1ccccc1,-1.42%
16,O=C(CN1CCCCCC1)Nc1ccc(-c2ccccc2)cc1,1.35%
17,FC(F)(F)c1cccc(CN2CCN(c3cccc(Cl)c3)CC2)c1,-0.127%
18,C=CCN(Cc1nc(-c2ccc(OC)c(OC)c2)no1)S(=O)(=O)c1c(C)cc(C)cc1C,0.758%
19,O=C(O)c1cc(-c2cccs2)nc2[nH]nc(-c3ccc(Br)cc3)c12,-5.42%
20,Fc1ccc(CN2CCN(c3cccc(C(F)(F)F)c3)CC2)cc1Br,1.27%
21,CCn1c2ccccc2c2nnc(N3CCN(C(=O)c4ccco4)CC3)nc21,1.96%
22,CC(=O)c1ccc2c(c1)CC(C)C(=O)N2C (stereo not shown),-1.43%
23,CCC(C)NC(=O)c1ccccc1NC(=O)CN(c1cccc(Cl)c1)S(C)(=O)=O (stereo not shown),-2.32%
24,COc1ccc(Cl)cc1NC(=O)c1cc2n(n1)C(C(F)(F)F)CC(c1ccco1)N2 (stereo not shown),0.812%
25,O=C(NCCC1=CCCCC1)Nc1cccc2ccccc12,1.88%

row,SMILES,% Inhibition @ 10 uM
1,CNC(=O)COc1ccc(C23CC4CC(CC(C4)C2)C3)cc1,-4.23%
2,Cc1cc(C)n(CC(=O)Nc2ccccc2)n1,-6.99%
3,COCCCn1c(SC2CCOC2=O)nc2c(sc3ccccc32)c1=O (stereo not shown),-0.975%
4,CCn1cc(C(=O)Nc2ccccc2C(=O)O)cn1,12.2%
5,OC1(c2ccc(Br)cc2)CCN(C2CCC(c3ccccc3)CC2)CC1 (stereo not shown),-2.95%
6,CCOC(=O)c1c(C)[nH]c(-c2ccccc2)c1-c1ccccc1,-1.77%
7,CCN(CC)S(=O)(=O)c1ccc(-c2csc(Nc3cccc(OC)c3)n2)cc1,-0.591%
8,Cc1ccccc1-c1nc(CS(=O)(=O)CC(=O)N(C)C2CCCCC2)c(C)o1,2.99%
9,Cc1onc(-c2ccccc2)c1C(=O)Nc1sc2c(c1C#N)CCCC2,4%
10,COc1ccc(C2CC3=Nc4ccccc4N(C(C)=O)C(c4ccco4)C3=C(O)C2)cc1 (stereo not shown),0.76%
11,N#C/C(=C\c1ccc(Cl)cc1)c1nc(-c2ccc(Cl)c(Cl)c2)cs1,-10.1%
12,O=C(O)CSc1ccc(C(=O)N2CCOCC2)cc1[N+](=O)[O-],0.00784%
13,CCOC(=O)C1CCCCN1Cc1cccc(Br)c1 (stereo not shown),-5.41%
14,O=C1CC(c2nc3ccccc3n2Cc2ccccc2)CN1c1ccccc1 (stereo not shown),1.92%
15,O=C(Nc1ccccc1C(=O)NCCCCO)c1ccco1,1.05%
16,CCOC(=O)C1=C(CC)OC(N)=C(C#N)C1c1cccc(F)c1 (stereo not shown),-1.38%
17,O=C(Cn1ncc2ccsc2c1=O)NCc1ccc2c(c1)OCO2,7.96%
18,OC1=C2C(=Nc3nc4ccccc4n3C2c2ccccc2O)CC(c2ccco2)C1 (stereo not shown),0.221%
19,Cc1c(C(=O)N2CCCCC2C)sc2nc(-c3ccc(F)cc3)cn12 (stereo not shown),-1.89%
20,CC1=C(C)CC(C(=O)NC2CCCCC2)C(C(=O)O)C1 (stereo not shown),2.03%
21,O=C(O)C(Cc1ccccc1)n1cnnn1 (stereo not shown),-0.426%
22,CN1CCN(C(=O)c2[nH]c3ccccc3c2Sc2ccc(Cl)cc2)CC1,-6.47%
23,Cc1cc(C)c(S(=O)(=O)NCC23C=CC(O2)C2C(=O)N(c4ccc(Cl)cc4)C(=O)C23)c(C)c1 (stereo not shown),2.64%
24,CCOC(=O)c1cc(-c2ccccc2)n(CC(=O)NC(C)(C)C)c1C,-5.76%
25,CC(C)NC(=O)c1nc(-c2cccc(F)c2)n2c1CCCCC2,-10.7%

row,SMILES,% Inhibition @ 10 uM
1,O=C(Cn1nc(Cc2ccncc2)c2ccccc2c1=O)NCc1ccccc1,4.41%
2,COc1ccc(NC(=O)C2=C(C)Nc3nc(CCCO)nn3C2c2ccc(Br)cc2)cc1 (stereo not shown),-0.123%
3,Cc1ccc(-c2cn3nc(N4CCCC(C(=O)NCc5cccs5)C4)sc3n2)cc1 (stereo not shown),5.62%
4,CCOC(=O)C1=C(C)N=c2s/c(=C\c3ccc(C)cc3)c(=O)n2C1c1ccc2c(c1)OCO2 (stereo not shown),3.32%
5,Cc1cccc(OCCn2cccc2/C=C2/C(=N)N3C=CSC3=NC2=O)c1,3.59%
6,O=C(COc1ccccc1)Nc1ccccc1F,2.13%
7,CC(=O)c1cccc2c1N=C1CC(C)(C)CC(=O)C1=CN2,-0.736%
8,CCOC(=O)N1CCN(CN2C(=O)/C(=N/c3ccc(OC)cc3)c3ccccc32)CC1,-0.725%
9,Clc1cccc(N2CCN(Cc3cccc4ccccc34)CC2)c1,1.55%
10,CCOC(=O)c1ccc(CNC(=O)Cn2nnc(-c3ccccc3)n2)o1,-4.04%
11,O=C(c1cccs1)N1CCN(c2cccc(Cl)c2)CC1,-1.05%
12,CC1=C(CCN2CCN(c3cccc(C(F)(F)F)c3)CC2)C(C)(C)CCC1,-3.5%
13,O=C(COc1ccc(Cl)cc1Cl)c1ccc(Cl)cc1,1.66%
14,COc1ccc(-c2noc(CN(C)S(=O)(=O)c3c(C)cc(C)cc3C)n2)cc1,0.758%
15,N#Cc1ccc(NC(=O)CSc2ncccn2)cc1,-1.44%
16,Cc1cccc(CCNc2nc3ccccc3n3cnnc23)c1,1.86%
17,Cc1nnc2c(Oc3cccc4ccccc34)nc3ccccc3n12,1.84%
18,CCC(C)NC(=O)CCc1cn(CC)c2ccccc12 (stereo not shown),-3.44%
19,CC(C)(C)c1ccc(OCC(O)Cn2c(CO)nc3ccccc32)cc1 (stereo not shown),3.35%
20,OC1(C#CC#CC2(O)CCCCC2)CCCCC1,4.73%
21,COc1ccc(-c2nn(C)c3sc(C(=O)N4CC(C)CC(C)C4)cc23)cc1OC (stereo not shown),4.51%
22,Cc1cc(C)cc(Oc2nc3c(C)cccn3c(=O)c2/C=C(\C#N)C(=O)NCc2ccco2)c1,3.63%
23,Cn1c(SCC(=O)NCCOCCO)nc2sc3c(c2c1=O)CCCC3,-7.3%
24,CC(C)Oc1ccc(-c2cc(C(=O)Nc3ccc(S(N)(=O)=O)cc3)c3ccccc3n2)cc1,2.79%
25,CC(CC(=O)O)(C(=O)O)c1ccccc1 (stereo not shown),-9.18%

row,SMILES,% Inhibition @ 10 uM
1,CCCN1CCC(NCCN(C)C)CC1,-3.6%
2,Cc1nc2nc(NC(=O)Cc3ccc(Cl)cc3)nn2c(O)c1C,3.66%
3,Cc1c(Cl)c([N+](=O)[O-])nn1CC(=O)N1CCN(C)CC1,5.03%
4,O=C(NC1CCC(NC(=O)c2cccc(F)c2)CC1)c1cccc(F)c1 (stereo not shown),2.22%
5,O=C(O)CNc1nn[nH]n1,-0.0709%
6,CC(=O)Nc1ccc(CN2CC(C)CC(C)C2)cc1 (stereo not shown),5.03%
7,O=C(Cc1cccc2ccccc12)NCC1(c2ccccc2)CCOCC1,7.73%
8,COC(=O)C1=CN(Cc2ccc(F)cc2)C=C(C(=O)OC)C1c1cccc(OCc2ccccc2)c1,-6.93%
9,CN(C)CCNc1oc(/C=C/c2cccs2)nc1C#N,3.27%
10,CCCC1CCC(C2CCC(OC(=O)CC(=O)c3ccc(Br)cc3)CC2)CC1 (stereo not shown),2.23%
11,CN1CCCC1C(O)(c1ccccc1)c1ccccc1 (stereo not shown),-0.582% and -3.6%
12,COc1ccc(NC(=O)CN(c2ccc(C(C)C)cc2)S(C)(=O)=O)cc1OC,-7.23%
13,c1ccc2c(CN3CCOCC3)cccc2c1,-1.78%
14,COc1ccc(-c2cc(C)no2)cc1S(=O)(=O)N1CCC(Cc2ccccc2)CC1,3.7%
15,CC(NC(=O)c1cnn(-c2ccccc2)c1-n1cccc1)c1ccccc1 (stereo not shown),-1.8%
16,CCc1nn(C(C)C(=O)NC(C)CCc2ccco2)c(=O)c2cc3occc3n12 (stereo not shown),1.38%
17,Cc1ccc(NC(=O)COc2ccc(CO)cc2Cl)cc1,2.25%
18,CCNC(=O)c1ccc(N2C(=O)CSC23C(=O)Nc2ccccc23)cc1 (stereo not shown),-7.23%
19,CCN1CCN(Cc2nc3ccccc3c(=O)n2-c2ccc(F)cc2)CC1,-1.17%
20,O=C(Cn1ncc2c3ccccc3nc-2c1O)NCc1ccc2c(c1)OCO2,-7.73%
21,N#CC1=C2SCC(O)(c3ccc(F)cc3)N2C(=O)CC1c1ccc(C(F)(F)F)cc1 (stereo not shown),6.31%
22,CCc1ccc(N(CC(=O)N2CCN(C)CC2)S(=O)(=O)c2ccccc2)cc1,-2.74%
23,Clc1ccc(Nc2ccc3ccccc3n2)cc1,5%
24,Cc1cc2ncn(CC(O)COCc3ccccc3)c2cc1C (stereo not shown),-0.988%
25,Cc1ccc(C2=NS(=O)(=O)N(C)C(C(=O)NCC34CC5CC(CC(C5)C3)C4)=C2)cc1,-2.84%
